Laboratory results from PubChem BioAssay AID686978 (National Center for Advancing Translational Sciences (NCATS), 2013).
Values joined by “and” are separate entries in the source; they are usually repeats but may differ in a detail not shown here. Identical values can stand only once. In all, about 420,000 compounds went through this assay and about 64,000 (15%) were called active. The inconclusive results got no clear call from the source; some entries with a clear call stand among them for comparison. Calls come from the whole dose curve; as a rule, active = well fitted inhibition curve with a large enough effect; inconclusive = small, poorly fitted or top-dose-only effect; inactive = flat fitted curve, though single readings scatter. Where the call is inconclusive, the potency comes from a doubtful curve fit.
% is set by controls: 0 for no effect and ±100 for the full control effect; potency is the fitted concentration of half-maximal effect; tags give direction and shape of the fitted curve.

Assay: qHTS for Inhibitors of human tyrosyl-DNA phosphodiesterase 1 (TDP1): qHTS in cells in absence of CPT; note: nearly all actives have a fitted effect of over 55% in size
Settings: DT40 Tdp1-/- hTDP1 cells, no CPT, ATP luminescence, 48 h; activity change, negative = growth inhibition: at 46.2 µM (top of the series) unless noted
How it was run: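 Compound effects on proliferation are scored in DT40 Tdp1-/-;hTDP1 cells in the absence of CPT. ATP levels (CellTiter-Glo luminescence) are recorded after a ≥48 hr, 37 °C incubation.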
With `c1ccc(CNc2nc(-c3ccoc3)nc3ccccc23)cc1` the Potency was inconclusive: 29.1 µM [inhibitor, single point]. In the case of `COc1ccc(NC(=O)C2(C)Cc3c(-c4cccc(C(N)=O)c4)ccnc3O2)cc1OC` (stereo unspecified), the Potency is reported as inconclusive: 29.1 µM [inhibitor, single point]. In the case of `CCOc1cccc(C(=O)N/N=C/c2ccoc2)c1`, the Potency is reported as “inactive”. With `COc1ccc2c(c1)c1c3n2CCN(C)C3=NCC1` the Potency was inconclusive: 21.1 µM [inhibitor, single point] and inconclusive: 29.1 µM [inhibitor, single point]. With `CC(C)C(C(=O)NC1=NCCS1)c1ccc(Cl)cc1` (stereo unspecified) the Potency was inconclusive: 20.6 µM [inhibitor, single point]. For `Cc1ccsc1C(=O)N/N=C/c1ccc2c(c1)OCO2`, the Potency was inconclusive: 18.4 µM [inhibitor, partial curve]. With `C[C@H](O)[C@@H]1C(=O)N2CCc3ccc(N4CCOCC4)cc3[C@@H]2C[C@@H]1N(C)C(=O)C(C)(C)C` the Potency was “inactive”. In the case of `COc1ccc(-c2nc3oc4cc(OC)ccc4c(=O)c3c(=O)n2Cc2ccco2)cc1`, the Potency is reported as active: 23.1 µM. For `COc1ccc(NC(=O)NCCC2=CCCCC2)cc1`, the Potency was “inactive”. With `Oc1cccc(Nc2nc(O)c(/C=C3\C=Nc4ccccc43)s2)c1` the Potency was inconclusive: 25.9 µM [inhibitor, partial curve, poor fit]. For `CN1CCCC2(CCN(C(=O)c3cccc(F)c3)CC2)C1`, the Potency was “inactive”. In the case of `CN1CCC(N(C)C(=O)Cc2ccccc2[N+](=O)[O-])CC1`, the activity change, negative = growth inhibition is reported as inconclusive: -35.7% [inhibitor]. In the case of `OCCC1CN(Cc2ccc3nsnc3c2)CCN1CCc1ccccc1` (stereo unspecified), the Potency is reported as inconclusive: 29.1 µM [inhibitor, single point]. In the case of `COCOc1ccc(-c2oc3c(C/C=C(\C)CCC=C(C)C)ccc(O)c3c(=O)c2OCOC)c(OCOC)c1`, the Potency is reported as inconclusive: 29.1 µM [inhibitor, single point]. For `Cc1nnc(NCCN2CCOCC2)[nH]c1=O`, the Potency was “inactive”. In the case of `O=S(=O)(NCC[C@@H]1CC[C@H](NS(=O)(=O)c2cccc(F)c2)[C@@H](CO)O1)c1cccc(F)c1`, the Potency is reported as inconclusive: 13 µM [inhibitor, partial curve]. In the case of `C[C@H](NC(=O)c1[nH]cnc1C(=O)Nc1ccon1)c1ccccc1`, the Potency is reported as inconclusive: 23.1 µM [inhibitor, single point]. For `O=C1NC2c3ccccc3C(=O)N2c2c1cnn2-c1ccccc1` (stereo unspecified), the Potency was inconclusive: 23.1 µM [inhibitor, single point]. In the case of `O=C(Nc1nsc(-c2ccccc2)n1)c1ccncc1`, the Potency is reported as “inactive”. In the case of `Cc1ccc(CCNC(=O)C2CCN(C(=O)c3sccc3-n3cccc3)CC2)cc1`, the Potency is reported as inconclusive: 18.4 µM [inhibitor, single point]. With `O=C(CSc1nc(=O)n(Cc2ccncc2)c2c1CCC2)Nc1ccccc1` the Potency was “inactive”. In the case of `O=C(CCS(=O)(=O)c1ccc(Br)cc1)N1CCN(c2ccccc2Cl)CC1`, the Potency is reported as inconclusive: 20 µM [inhibitor, single point]. For `Cc1cccc(C)c1NC(=O)COC(=O)c1ccc2[nH]c3c(c2c1)CCCC3`, the Potency was inconclusive: 7.31 µM [inhibitor, partial curve]. With `CC1(C(=O)O)CCN1C(=O)/C=C/c1ccccc1` (stereo unspecified) the Potency was “inactive”. In the case of `O=C(CSCc1ccc(Cl)cc1)Nc1ccc(O)cc1C(=O)O`, the Potency is reported as “inactive”. In the case of `CCOC(=O)/C=C/C(=O)Nc1nccs1`, the Potency is reported as active: 3.66 µM. With `COc1cccc(-c2c(-c3cc(OC)cc(OC)c3)n(C)c3ccc(-c4ccc5cc[nH]c5c4)cc23)c1` the Potency was inconclusive: 23.1 µM [inhibitor, partial curve, poor fit]. With `Cc1ccc(-n2ncc3c(N4CCN(c5ccc(F)cc5)CC4)ncnc32)c(C)c1` the Potency was inconclusive: 6.51 µM [inhibitor, partial curve]. For `N#Cc1ccccc1NC(=O)CC1c2ccccc2Oc2ccccc21`, the Potency was active: 1.84 µM. With `Cc1ccnc(NC(=O)CNC(=O)c2ccccc2)c1` the Potency was “inactive”. With `Cc1ccc(OCC(=O)NNc2c3ccccc3nc3ccccc23)cc1` the Potency was active: 16.4 µM. In the case of `COC(=O)[C@H](C)N(Cc1ccc(Cl)c(Cl)c1)S(=O)(=O)CCNC1CCCC1`, the Potency is reported as active: 20.6 µM. With `CC1Cc2nc(SCC(=O)Nc3ccc4c(c3)OCO4)n(-c3ccc(F)cc3)c(=O)c2S1` (stereo unspecified) the Potency was inconclusive: 13 µM [inhibitor, partial curve, poor fit]. In the case of `C=CCn1cc(C(=O)NCc2cccnc2)c(=O)c2cc(S(=O)(=O)N(CC)CC)ccc21`, the Potency is reported as inconclusive: 13 µM [inhibitor, partial curve]. For `CCCN(CCC)C(=O)c1c[nH]c2ccc(S(=O)(=O)N(C)c3ccc(Cl)cc3)cc2c1=O`, the Potency was inconclusive: 14.6 µM [inhibitor, partial curve]. For `COc1cccc(CNC(=O)CCc2c(C)c3cc4c(C)coc4cc3oc2=O)c1`, the Potency was active: 16.4 µM. For `OCCN1CCN(CCCN2c3ccccc3Sc3ccc(Cl)cc32)CC1`, the Potency was active: 5.8 µM and active: 29.1 µM. For `CC(C)CCC1CC(CSC(=N)N)OC1=O` (stereo unspecified), the Potency was active: 23.1 µM. With `N[C@H]1C(O)O[C@H](CO)[C@@H](O)[C@@H]1O` (stereo partly specified) the Potency was “inactive”. In the case of `CC(=O)Nc1ccc(Nc2nc(C)c([N+](=O)[O-])c(N(C)c3ccccc3)n2)cc1`, the Potency is reported as inconclusive: 29.1 µM [inhibitor, single point]. In the case of `CCN(CC)S(=O)(=O)c1ccc(NC(=O)c2cc(-c3cccs3)nc3ccccc23)cc1`, the Potency is reported as inconclusive: 8.2 µM [inhibitor, partial curve]. For `O=C(C[n+]1ccncc1)c1cccc2ccccc12`, the Potency was inconclusive: 35.5 µM [inhibitor, single point]. For `COc1ccc(CCNC(=O)Cc2ccc(NC3=NC4CS(=O)(=O)CC4S3)cc2)c(OC)c1` (stereo unspecified), the Potency was “inactive”. With `Cc1cc([N+](=O)[O-])cc(/C=N\NC(=O)C2COc3ccccc3O2)c1O` (stereo unspecified) the Potency was active: 13 µM. With `Cc1cc(N2CCCCC2)n2ncc(-c3ccc(Cl)cc3)c2n1` the Potency was inconclusive: 18.4 µM [inhibitor, single point]. With `CCn1cc(C(=O)N2CCN(c3ccccc3OC)CC2)c2cc(OC)c(OC)cc2c1=O` the Potency was inconclusive: 29.1 µM [inhibitor, single point].
